Source: PubChem BioAssay AID493208 (National Center for Advancing Translational Sciences (NCATS), 2011)
Screen size: about 44,000 compounds; about 340 (0.77%) were called active. About 5% were inconclusive and are not listed. Calls come from the whole dose curve; as a rule, active = well fitted inhibition curve with a large enough effect; inconclusive = small, poorly fitted or top-dose-only effect; inactive = flat fitted curve, though single readings scatter. Some of the results follow.

Experiment: Acumen qHTS Assay for Inhibitors of the mTORC1 Signaling Pathway in MEF (Tsc2-/-, p53-/-) Cells: Sytravon;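 note: plate controls were DMSO for no effect and rapamycin for full effect; nearly all actives have a fitted effect of over 50% in size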
Details: phospho-rpS6 immunofluorescence/PI, 24 h; series mostly up to 38.3 µM; activity change, negative = inhibition: at the top concentration
How it was run: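 Immunofluorescence of rpS6 phosphorylation in Tsc2-/-, p53-/- MEFs after 24 h compound exposure, normalized to propidium iodide signal. Activity is expressed as % positive cells, thresholded with 7.5 nM rapamycin.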

Activity change, negative = inhibition, inactive:
O=C(Nc1ccc(Cl)cc1)N1CCC(CN2CCCC2)CC1 1.57%
COc1ccc(Cn2cc(C(=O)c3ccc(OC)cc3)c(=O)c3cc4c(cc32)OCCO4)cc1 -19.5%
COc1ccc(OC)c(NC(=O)c2cn3c4c(ccc(Cl)c4c2=O)OC(C)C3)c1 (configuration not stated) -0.137%
COc1c(Cl)cc(Cl)cc1/C=C(\C#N)c1nc2ccccc2[nH]1 -9.17%
CCN(CCCNC(=O)c1nn(-c2ccc(C)cc2)c(=O)c2c1c1ccccc1n2C)c1ccccc1 -8.35%
CCc1ccc(-n2c(=O)c3c(C)c(C(=O)N(C)C)sc3n(Cc3cccc(C)c3)c2=O)cc1 -2.73%
CCOc1ccc(CNC(=O)CCn2nc(C)c3c(C)n(-c4ccccc4)nc3c2=O)cc1 -4.1%
COc1ccc(C(=O)Nc2ccc(-c3cc4ccccc4oc3=O)c(C)c2)cc1Br -0.0198%
Cc1ccc(C)c(N2CCN(C(=O)CCCn3ncn4c(cc5occc54)c3=O)CC2)c1 -6.11%
CN(C)c1ccc(CNC(=O)CCCN2C(=O)CCn3nc(-c4cccn4C)cc32)cc1 -6.53%
COc1cc(-c2nc3sccn3c2Nc2cccc(C)c2)ccc1O 7.81%
Cc1ccc(O)c(-c2ccnc3cc(-c4ccc(Cl)cc4)nn23)c1 -16.1%
Cc1coc2cc3oc(=O)c(CC(=O)NCc4ccc(F)cc4)c(C)c3cc12 -12.5%
Cc1ccc(-n2c(=O)c3c4c(sc3n(Cc3ccccc3F)c2=O)CCC4)cc1C -1.99%
Cc1nc(-c2ccc(Cl)cc2)sc1CCNC(=O)c1ccco1 -16.3%
Oc1ccccc1-c1nc(/C=C/c2ccccc2Cl)no1 -5.37%
Cc1ccccc1NC(=O)CCc1c(C)nn(-c2ccc(N3CCCCC3)nn2)c1C 1.98%
Cc1ccc(Cn2c(=O)n(Cc3nc(-c4ccccc4)no3)c(=O)c3cc4c(cc32)OCO4)cc1 -1.31%
COc1ccccc1OCCCn1c(C2CC(=O)N(c3ccccc3Cl)C2)nc2ccccc21 (configuration not stated) -0.835%
COc1ccc(C(=O)Nc2ccc3nc(SCc4ccc(C)cc4)sc3c2)cc1 -0.502%
CC(=O)c1cccc(NC(=O)CCc2c(C)nc3c(-c4ccc(F)cc4)c(C)nn3c2C)c1 -5.87%
O=C(Nc1ccccc1)N1CCN(C(=O)c2nsc3ccccc23)CC1 -0.904%
CCCc1nc2sc3c(N4CCCCC4)ncnc3c2c2c1CCCC2 -18.9%
COc1ccc(OC)c(NC(=O)Cn2cc(S(=O)(=O)c3ccccc3)c(=O)c3cc(C)ccc32)c1 -6.22%
Cc1ccc(CCNC(=O)CCn2c(=O)c3cccn3c3ccc(F)cc32)cc1 2.77%
Fc1cccc(F)c1-c1nc(-c2ccncc2)no1 -12.6%
Cc1cc(=O)n2nc(N3CCC(C(=O)Nc4ccc(C(C)C)cc4)CC3)sc2n1 -0.683%
Cc1cccc(NC(=O)Cn2c(=O)n(Cc3ccc(C(=O)NCc4ccc5c(c4)OCO5)cc3)c(=O)c3ccccc32)c1 7.53%
O=C(CCn1c(=O)c2cccn2c2ccc(F)cc21)NCc1ccccc1F -5.79%
Cc1ccc(NC(=O)CSc2nc(-c3ccc(F)cc3)cc(C(F)(F)F)c2C#N)cc1 4.28%
CCNC(=O)CC1C(=O)N(c2ccccc2)C(=O)N1Cc1ccc(F)cc1 (configuration not stated) -12.1%
COc1ccc(NC(=O)Cn2c(=O)oc3cc(S(=O)(=O)NC(C)C)ccc32)cc1OC -5.44%
CCOc1ccc(C(=O)c2cn(CC(=O)Nc3cc(OC)cc(OC)c3)c3ccc(F)cc3c2=O)cc1 -2.18%
Cc1ccccc1Cn1c(CCCNC(=O)C2CCCCC2)nc2ccccc21 -4.62%
Cc1cccc(OCc2nnc(SCC(=O)Nc3ccc(C)cc3C)o2)c1 5.38%
Cc1ccccc1Cn1c(SCc2ccc(C(=O)NCc3cccs3)cc2)nc2ccncc21 -2.59%
CCCSCCCNC(=O)C1CCN(C(=O)c2cc3sccc3n2C)CC1 0.943%
COc1ccccc1N1CCN(S(=O)(=O)c2ccc3c(c2)oc(=O)n3C)CC1 -11.6%
Cc1nnc(N2CCC(C(=O)NC(C)C)CC2)c2nn(-c3ccc(Cl)cc3)c(C)c12 1.89%
CCC1CCCCN1S(=O)(=O)c1ccc(NC(=O)c2cc(=O)c3ccccc3o2)cc1 (configuration not stated) 5.62%
CCCCOc1ccc(C2c3c(-c4ccccc4O)n[nH]c3C(=O)N2Cc2ccncc2)cc1OC (configuration not stated) -18.8%
O=C(Nc1nc(-c2ccc(Br)cc2)ns1)c1ccc(F)cc1 -0.953%
O=S(=O)(c1ccc(-n2cnnn2)cc1)N1CCN(c2ccccc2F)CC1 -9.84%
CC(=O)c1cccc(NC(=O)Cn2c(SCC(=O)Nc3ccc(F)cc3)nc3ccccc32)c1 6.82%
CCOc1ccc(-n2c(C)nc3c(cnn3-c3ccc(C)cc3)c2=O)cc1 0.221%
COc1ccc(-c2c(C#N)c(SCC(=O)Nc3ccccc3C)nc(C)c2C(=O)Nc2ccccc2)cc1OC 5.71%
COCCCNC(=O)CSc1nc(-c2cccc(F)c2)[nH]c1-c1ccccc1 2.63%
O=C(CN1CCN(Cc2ccccc2Cl)C1=O)NCc1ccccc1Cl 1.05%
COc1ccc(CCN2C(=O)N(c3ccc(F)cc3)C(=O)C2CC(=O)Nc2ccccc2)cc1 (configuration not stated) -13.4%
N#C/C(=C\c1ccc(Cl)cc1)C(=O)NCC1CCCO1 (configuration not stated) -7.26%
Cn1cc(S(=O)(=O)c2ccccc2)c(=O)c2cc(F)c(N3CCOCC3)cc21 -5.31%
CCc1cnc2c(c1SCC(=O)Nc1ccc(Cl)cc1)c(=O)n(C)c(=O)n2C -7.49%
CCOc1ccc(NC(=O)Cc2coc3ccc(C)cc23)cc1 -19.7%
COc1ccc(-c2cc(C(F)F)n3ncc(C(=O)Nc4cc(OC)ccc4OC)c3n2)cc1 0.987%
COc1ccccc1CNC(=O)Cn1c(=O)oc2cc(S(=O)(=O)N3CCC(C)CC3)ccc21 -5.13%
COc1ccccc1NC(=O)CSc1ccc(-c2sc(C)nc2C)nn1 -5.98%
Cc1cccc(-c2nc(CCNC(=O)Cc3ccc(F)cc3)cs2)c1 -19.6%
CCC(Nc1ccc(-c2nc(-c3ccco3)no2)cc1[N+](=O)[O-])c1ccccc1 (configuration not stated) -15.4%
COc1ccc(C2c3cccn3CCN2S(=O)(=O)c2ccccc2[N+](=O)[O-])cc1OC (configuration not stated) -0.378%
CCc1ccc2occ(CC(=O)Nc3c(C(=O)Nc4ccc(OC)cc4)oc4ccccc34)c2c1 -1.97%
O=C(NCc1ccccc1)c1nnc(Cc2cccc(F)c2)o1 -0.213%
Cc1cccn2cc(-c3cccc(NS(=O)(=O)c4ccc(Cl)c(Cl)c4)c3)nc12 -1.28%
